# Measured values: paper PMC6602471
# The other results are listed elsewhere or left out. At the low end of the ranking, values are background and their order means little.
# Target: T1, ELK1 (UniProt P19419)
# T1 sequence: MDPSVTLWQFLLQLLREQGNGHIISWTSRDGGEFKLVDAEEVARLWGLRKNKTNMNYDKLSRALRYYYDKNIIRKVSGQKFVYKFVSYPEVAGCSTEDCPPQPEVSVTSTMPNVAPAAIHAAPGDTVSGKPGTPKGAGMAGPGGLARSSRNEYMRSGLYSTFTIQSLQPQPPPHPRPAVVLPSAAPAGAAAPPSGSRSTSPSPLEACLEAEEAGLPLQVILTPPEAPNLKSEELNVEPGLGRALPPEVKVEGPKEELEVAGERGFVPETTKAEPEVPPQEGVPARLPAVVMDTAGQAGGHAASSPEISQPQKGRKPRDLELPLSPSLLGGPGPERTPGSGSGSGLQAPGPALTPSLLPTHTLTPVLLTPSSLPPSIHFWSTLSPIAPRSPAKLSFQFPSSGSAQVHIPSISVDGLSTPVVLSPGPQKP
# Assay: custom PBM
# Conditions: custom protein-binding microarray; buffer, salt, pH and temperature not stated; high values mean tight binding; double strand, one strand shown
row,Sequence,binding signal (log fluorescence intensity)
1,TACTGACTTATATATGCGAATGCACATGAATAGGCCGTCTTGATTCGCTTGACGCTGCTG,8.83
2,TCCGTCTACCAGCTCCACCCACTTCAGGCCTTGTAGGTCTTGATTCGCTTGACGCTGCTG,8.79
3,GATTGATTTCTGCCCTTATTCGCACGTGCCATAACAGTCTTGATTCGCTTGACGCTGCTG,8.95
4,CTGGGACTTGACCCAACTCTGCCACGTGGGTCGTTTGTCTTGATTCGCTTGACGCTGCTG,8.87
5,GGAAAAAGGCCCAGGGTAAAACCGGAAGTGGGCTTAGTCTTGATTCGCTTGACGCTGCTG,11
6,TAAAGGGAAGAGGGTTGTGGTAGTTCCGGGTATTAAGTCTTGATTCGCTTGACGCTGCTG,11.1
7,GCTGCTGCGGTGCATACCCTACCGGATGTGACCCCGGTCTTGATTCGCTTGACGCTGCTG,10.1
8,TGTCGGGTAAGGGAATGTAGATCTCGTGAATGAAAAGTCTTGATTCGCTTGACGCTGCTG,8.82
9,GGAAAAAGGCCCAGGGTAACACCGGAACTGGGCTTAGTCTTGATTCGCTTGACGCTGCTG,10.1
10,TCCGGCTACCAGCTCCACCCACTTCAGGCCTTGTAAGTCTTGATTCGCTTGACGCTGCTG,8.86
11,TAAAGGGAAGACGGTCGTGGTAGTTCCGGGTATTAAGTCTTGATTCGCTTGACGCTGCTG,11.3
12,GATTAATTTCTGCCCTTATTCTCACGTGCCATAACAGTCTTGATTCGCTTGACGCTGCTG,8.84
13,CACAATTTTTACAGTAATGTCGCACGCGTAACTCCTGTCTTGATTCGCTTGACGCTGCTG,8.88
14,GACAATTTTTACAGTAATGTAGCACGCGTAACTCCTGTCTTGATTCGCTTGACGCTGCTG,8.87
15,TACTGACTTATATATGCGAATGCACATGAATAGCCCGTCTTGATTCGCTTGACGCTGCTG,8.94
16,TACTGACTGATATATGCGAATGCACATGAATAGACCGTCTTGATTCGCTTGACGCTGCTG,9.04
17,GCTGCTGCGGTGCATACCCCGCCGGATGTGACCCCGGTCTTGATTCGCTTGACGCTGCTG,10.5
18,TGTCGGGTAAGGGAATGTAGATCACGTGAAAGAAAAGTCTTGATTCGCTTGACGCTGCTG,8.82
19,GTGTATAGGATCCCATCCAACACACGTGTTGAAATGGTCTTGATTCGCTTGACGCTGCTG,8.88
20,GGAAAAAGGCCCTGGGTAACACCGGAAGTGGGCTTAGTCTTGATTCGCTTGACGCTGCTG,11.1
21,GTGTATAGGATCCCATCCTACACACGTGTTAAAATGGTCTTGATTCGCTTGACGCTGCTG,8.97

row,Sequence,binding signal (log fluorescence intensity)
1,CTGGGACTTGACCCAACTCTGCCACGGGGGTCGTTTGTCTTGATTCGCTTGACGCTGCTG,8.9
2,CTGGGACTTGACCCAACTCTGCCACGTGGGTCGATTGTCTTGATTCGCTTGACGCTGCTG,9
3,CGGAAGTGTCGTAAACGTCGGATATCGGGTTCTTCTGTCTTGATTCGCTTGACGCTGCTG,9.06
4,GGAAAAAGGCCCAGGGTAACACCGGAAGTGGGCTGAGTCTTGATTCGCTTGACGCTGCTG,10.9
5,CTGGGGCTTGACCCAACTCTGCCACGTGGGTCGTTTGTCTTGATTCGCTTGACGCTGCTG,8.81
6,TACTGACTTATATATGAGAATGCACATGAATAGACCGTCTTGATTCGCTTGACGCTGCTG,8.84
7,GCTGCTGCGGTGCATATCCCACCGGATGTGACCCCGGTCTTGATTCGCTTGACGCTGCTG,10.2
8,GATAAATTTCTGCCCTTATTCGCACGTGCCATAACAGTCTTGATTCGCTTGACGCTGCTG,8.77
9,GGAAAAAGGCCCAAGGTAACACCGGAAGTGGGCTTAGTCTTGATTCGCTTGACGCTGCTG,10.8
10,TACTGGCTTATATATGCGAATGCACATGAATAGACCGTCTTGATTCGCTTGACGCTGCTG,8.78
11,CACAATTTTCACAGTAATGTAGCACGCGTAACTCCTGTCTTGATTCGCTTGACGCTGCTG,8.82
12,CTGGGACTTGACCCAACTCTGCAACGTGGGTCGTTTGTCTTGATTCGCTTGACGCTGCTG,8.92
13,GGAAAAAGGCCCAGGGTAACACCGGCAGTGGGCTTAGTCTTGATTCGCTTGACGCTGCTG,8.99
14,TCCAGCTACCAGCTCCACCCACTTCAGGCCTTGTAGGTCTTGATTCGCTTGACGCTGCTG,8.99
15,TGTCGGGTAAGGGAATGTAGATCACGTGGATGAAAAGTCTTGATTCGCTTGACGCTGCTG,8.97
16,TAAAGGGAAGACCGTTGTGGTAGTTCCGGGTATTAAGTCTTGATTCGCTTGACGCTGCTG,11
17,CACAATTTTTACAGTAATGTAGCACGCGTAAGTCCTGTCTTGATTCGCTTGACGCTGCTG,8.86
18,GGAAAAAGGCCCAGGGAAACACCGGAAGTGGGCTTAGTCTTGATTCGCTTGACGCTGCTG,11.4
19,TGTCGTGTAAGGGAATGTAGATCACGTGAATGAAAAGTCTTGATTCGCTTGACGCTGCTG,8.89
20,AAGCATAGGACTTCTTCCCTGAAGCAATTGATAACCGTCTTGATTCGCTTGACGCTGCTG,8.87
21,TACAGGGAAGACGGTTGTGGTAGTTCCGGGTATTAAGTCTTGATTCGCTTGACGCTGCTG,11.1

row,Sequence,binding signal (log fluorescence intensity)
1,TGTCGGGTAAGGGAATGTAGATCACGTGAAGGAAAAGTCTTGATTCGCTTGACGCTGCTG,8.84
2,CGGAAGTGTCGTAAACGTCGGATATTCGGTTCTTCTGTCTTGATTCGCTTGACGCTGCTG,9.16
3,CGGAAGTGTCGTACACGTCGGATATCCGGTTCTTCTGTCTTGATTCGCTTGACGCTGCTG,12.2
4,GGAAAAAGGCCCAGGGTAACGCCGGAAGTGGGCTTAGTCTTGATTCGCTTGACGCTGCTG,10.6
5,CGGAAGTGTCGTAAACGTCAGATATCCGGTTCTTCTGTCTTGATTCGCTTGACGCTGCTG,11.2
6,TACTGACTTATATATGCCAATGCACATGAATAGACCGTCTTGATTCGCTTGACGCTGCTG,8.93
7,TACTGACATATATATGCGAATGCACATGAATAGACCGTCTTGATTCGCTTGACGCTGCTG,8.78
8,TAAAGGGAAGATGGTTGTGGTAGTTCCGGGTATTAAGTCTTGATTCGCTTGACGCTGCTG,10.9
9,TACTGACTTATATATGCGAATGCACATGAATAAACCGTCTTGATTCGCTTGACGCTGCTG,8.87
10,GTTGCTGCGGTGCATACCCCACCGGATGTGACCCCGGTCTTGATTCGCTTGACGCTGCTG,10.2
11,CACAATTTTTACAGTAAGGTAGCACGCGTAACTCCTGTCTTGATTCGCTTGACGCTGCTG,8.86
12,TCGGGCTACCAGCTCCACCCACTTCAGGCCTTGTAGGTCTTGATTCGCTTGACGCTGCTG,8.76
13,GTGTATAGGATCCCATCCAACACACGTGCTAAAATGGTCTTGATTCGCTTGACGCTGCTG,8.85
14,TCCGACTACCAGCTCCACCCACTTCAGGCCTTGTAGGTCTTGATTCGCTTGACGCTGCTG,8.95
15,TGTCGGGTAAGGGAATGTAGATCACGTAAATGAAAAGTCTTGATTCGCTTGACGCTGCTG,8.85
16,TCCGGCTACCAGCTCAACCCACTTCAGGCCTTGTAGGTCTTGATTCGCTTGACGCTGCTG,8.9
17,TCCGGCTACCAGCTCCACCCGCTTCAGGCCTTGTAGGTCTTGATTCGCTTGACGCTGCTG,8.71
18,GGAAAAAGGCCCAGGGTTACACCGGAAGTGGGCTTAGTCTTGATTCGCTTGACGCTGCTG,11
19,CAGCATAGGATTTCTTCCCTGAAGCAATTGATAACCGTCTTGATTCGCTTGACGCTGCTG,8.86
20,CTGGGACTTGACCCAATTCTGCCACGTGGGTCGTTTGTCTTGATTCGCTTGACGCTGCTG,8.78
21,TGTCGGGTACGGGAATGTAGATCACGTGAATGAAAAGTCTTGATTCGCTTGACGCTGCTG,8.88

row,Sequence,binding signal (log fluorescence intensity)
1,AACTGACTTATATATGCGAATGCACATGAATAGACCGTCTTGATTCGCTTGACGCTGCTG,8.87
2,CACAATTTTTACAGGAATGTAGCACGCGTAACTCCTGTCTTGATTCGCTTGACGCTGCTG,8.82
3,TGTCGGGTAAGGGAATGTAGATCGCGTGAATGAAAAGTCTTGATTCGCTTGACGCTGCTG,8.87
4,GCTGCTGCGGTGCATAACCCACCGGATGTGACCCCGGTCTTGATTCGCTTGACGCTGCTG,10.2
5,TGCGGCTACCAGCTCCACCCACTTCAGGCCTTGTAGGTCTTGATTCGCTTGACGCTGCTG,8.85
6,GATTAACTTCTGCCCTTATTCGCACGTGCCATAACAGTCTTGATTCGCTTGACGCTGCTG,9.06
7,GCTGCTGCGGTGCATACCCCACCGGATGTGAGCCCGGTCTTGATTCGCTTGACGCTGCTG,10.2
8,CACAATTTTTACAGTAATGTAGCAGGCGTAACTCCTGTCTTGATTCGCTTGACGCTGCTG,9.01
9,CAGCATAGGACTTCTTCCCTCAAGCAATTGATAACCGTCTTGATTCGCTTGACGCTGCTG,8.84
10,GGAAAAAGGCCCAGGGTAACACCGGAAGTGTGCTTAGTCTTGATTCGCTTGACGCTGCTG,10.8
11,CGGAACTGTCGTAAACGTCGGATATCCGGTTCTTCTGTCTTGATTCGCTTGACGCTGCTG,12.5
12,GGACAAAGGCCCAGGGTAACACCGGAAGTGGGCTTAGTCTTGATTCGCTTGACGCTGCTG,11.1
13,GGAAAAAGGCCCAGGGTAACACCGGAAGGGGGCTTAGTCTTGATTCGCTTGACGCTGCTG,10
14,TGTCGGGTAAGGGAATGTAGACCACGTGAATGAAAAGTCTTGATTCGCTTGACGCTGCTG,9.03
15,GCTGCTGCGGTGCATTCCCCACCGGATGTGACCCCGGTCTTGATTCGCTTGACGCTGCTG,10
16,GATTAATTTCTGCCATTATTCGCACGTGCCATAACAGTCTTGATTCGCTTGACGCTGCTG,8.92
17,CAGCATAGCACTTCTTCCCTGAAGCAATTGATAACCGTCTTGATTCGCTTGACGCTGCTG,8.92
18,GGAAAAAGGCCCAGGGTAACACAGGAAGTGGGCTTAGTCTTGATTCGCTTGACGCTGCTG,9.55
